Measured values as given in PubChem BioAssay AID493208 (National Center for Advancing Translational Sciences (NCATS), 2011).
In all, about 44,000 compounds went through this assay and about 340 (0.77%) were called active. Another 5% or so got no clear call; they are omitted. Calls come from the whole dose curve; as a rule, active = well fitted inhibition curve with a large enough effect; inconclusive = small, poorly fitted or top-dose-only effect; inactive = flat fitted curve, though single readings scatter. The list shows a part of the results.
Potency is the fitted concentration of half-maximal effect.

Assay: Acumen qHTS Assay for Inhibitors of the mTORC1 Signaling Pathway in MEF (Tsc2-/-, p53-/-) Cells: Sytravon; note: nearly all actives have a fitted effect of over 50% in size;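 for activity change, negative = inhibition: plate controls were DMSO for no effect and rapamycin for full effect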
Conditions: phospho-rpS6 immunofluorescence/PI, 24 h; series mostly up to 38.3 µM; activity change, negative = inhibition: at the top concentration
In short: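 Plate MEFs (Tsc2-/-, p53-/-, empty vector) in DMEM/10% FBS; after 24 h add compound, incubate 24 h at 37 degree Celsius; fix in PFA/TX-100, block, stain phospho-rpS6 and 10 uM PI; scan at 488 nm; report % positive cells.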
In the case of `COc1ccc(N2CCN(C(=O)Cn3cnc4nc5c(cc4c3=O)CCCC5)CC2)cc1`, the “activity change, negative = inhibition” value is reported as inactive: 13.3%.
For `CCOC(=O)c1cccc(NC(=O)c2cc(CN3CCCC3)on2)c1`, the “activity change, negative = inhibition” value was inactive: 4.59%.
With `COc1ccc(/C=C\c2onc(C)c2S(=O)(=O)N2CCC(C(=O)Nc3ccccc3OC)CC2)cc1` the “activity change, negative = inhibition” value was inactive: 0.808%.
With `CCS(=O)(=O)N1N=C(c2ccc(C)cc2)CC1c1cc2ccc(OC)cc2nc1Cl` (stereo not drawn) the “activity change, negative = inhibition” value was inactive: -15.6%.
In the case of `COc1ccccc1OC(C)C(=O)NCC1(N2CCOCC2)CCCCC1` (stereo not drawn), the “activity change, negative = inhibition” value is reported as inactive: -7.11%.
In the case of `Cc1ccc(Cn2cccc2C2=NC(C)(C)CO2)cc1`, the “activity change, negative = inhibition” value is reported as inactive: -16.1%.
For `CC1CCN(S(=O)(=O)c2ccc3c(c2)N(CC(=O)NC(C)C)C(=O)CS3)CC1`, the “activity change, negative = inhibition” value was inactive: 3.72%.
For `CCc1nn(CCCC(=O)NCc2ccccc2Br)c(=O)c2cc3occc3n12`, the “activity change, negative = inhibition” value was inactive: -3.84%.
With `CCCCOc1ccc(-c2nonc2NC(=O)c2ccco2)cc1` the “activity change, negative = inhibition” value was inactive: 0.176%.
In the case of `COc1ccc(NC(=O)CCNS(=O)(=O)c2cccc3nonc23)cc1`, the “activity change, negative = inhibition” value is reported as inactive: -28.5%.
For `CCCC(=O)N1c2ncnn2C2(CCCCC2)[C@@H]2CCCC[C@@H]21`, the “activity change, negative = inhibition” value was inactive: -0.899%.
With `Cc1ccc(CCNC(=O)CN(c2ccc(C)cc2)S(=O)(=O)c2c(C)noc2C)cc1` the “activity change, negative = inhibition” value was inactive: 0.546%.
For `Cc1c(Cl)ccc2sc(N3CCN(C(=O)c4ccco4)CC3)nc12`, the “activity change, negative = inhibition” value was inactive: -3.79%.
For `COc1ccccc1CNc1ccc(-c2nc(C(C)C)no2)cc1[N+](=O)[O-]`, the “activity change, negative = inhibition” value was inactive: -0.79%.
With `CCOc1ccc(CNC(=O)c2cc3oc4ccccc4c3n2C)cc1` the “activity change, negative = inhibition” value was inactive: 3.94%.
With `Cc1ccc(C)c(NC(=O)Cn2cc(C(=O)c3ccncc3)c(=O)c3cc(F)ccc32)c1` the “activity change, negative = inhibition” value was inactive: -3.76%.
In the case of `COc1ccc(NC(=O)Cn2cnc3sc(C)c(S(=O)(=O)N4CCN(C)CC4)c3c2=O)cc1OC`, the “activity change, negative = inhibition” value is reported as inactive: -2.54%.
With `O=C(CSc1nc2c(c(=O)[nH]1)CCC2)Nc1ccccc1F` the “activity change, negative = inhibition” value was inactive: -9.35%.
With `CN(C)c1ccc(CNc2nc(-c3ccco3)nn2S(=O)(=O)c2ccc3ccccc3c2)cc1` the “activity change, negative = inhibition” value was inactive: 0.335%.
In the case of `Cc1ccccc1OCc1ccc(-c2nc(C#N)c(NCCCN(C)C)o2)o1`, the Potency is reported as active: 5.85 µM.
For `Cc1ccc(C(=O)Nc2ccc(Cl)c(-c3nc4ncccc4o3)c2)c(C)c1`, the “activity change, negative = inhibition” value was inactive: -17.8%.
In the case of `Cc1ccccc1-c1nc(CNC(=O)Nc2ccccc2)c(C)o1`, the “activity change, negative = inhibition” value is reported as inactive: 0.461%.
With `COc1cccc(-c2nc(-c3ccc(-c4ccccc4)nc3OC)no2)c1` the “activity change, negative = inhibition” value was inactive: -2.5%.
For `CCOC(=O)C1CCN(C(c2ccccc2OC)c2c(O)cc(C)n(CCOC)c2=O)CC1` (stereo not drawn), the “activity change, negative = inhibition” value was inactive: -0.649%.
For `O=C(Nc1ccc(F)cc1)[C@H](Cc1ccccc1)N1Cc2ccccc2C1=O`, the “activity change, negative = inhibition” value was inactive: -0.4%.
In the case of `CC(C)CCOc1ccc(C(=O)Nc2sc3c(c2C#N)CCCCC3)cc1`, the “activity change, negative = inhibition” value is reported as inactive: 5.44%.
With `CCOc1ccccc1NC(=O)C1CCN(S(=O)(=O)c2c(C)noc2/C=C/c2ccc(C)cc2)CC1` the “activity change, negative = inhibition” value was inactive: -0.875%.
In the case of `COC(=O)c1ccc(Nc2ncnc3c2nc2n3CCCC2)cc1`, the “activity change, negative = inhibition” value is reported as inactive: -0.0494%.
With `CCOc1ccc(C(=O)NCCn2cc(SCC(=O)NCCc3ccc(OC)c(OC)c3)c3ccccc32)cc1` the “activity change, negative = inhibition” value was inactive: -5.29%.
For `COc1ccccc1OCCn1cc(C(=O)c2cccs2)c2ccccc21`, the “activity change, negative = inhibition” value was inactive: -0.0757%.
With `O=C(c1cc2c(=O)oc3ccccc3c2s1)N1CCN(c2cccc(Cl)c2)CC1` the “activity change, negative = inhibition” value was inactive: 6.85%.
With `COc1ccc(Cl)cc1NC(=O)Cn1ccn(Cc2ccc(C)cc2)c(=O)c1=O` the “activity change, negative = inhibition” value was inactive: -2.51%.
With `CCOC(=O)N1CCN(C(=O)CN(c2cccc(Cl)c2C)S(=O)(=O)c2ccc(C)cc2)CC1` the “activity change, negative = inhibition” value was inactive: -14.9%.
For `O=C(Nc1ccccc1)c1cccc2c(=O)c3c([nH]c12)CCCC3`, the “activity change, negative = inhibition” value was inactive: -0.0417%.
In the case of `Cc1cccc(-n2c(SCC(N)=O)nc3c(oc4ccccc43)c2=O)c1`, the “activity change, negative = inhibition” value is reported as inactive: -0.246%.
With `COc1ccccc1-c1nc(-c2ccc(Br)o2)no1` the “activity change, negative = inhibition” value was inactive: -0.347%.
In the case of `COCCn1c(SCC(=O)c2cc(C)ccc2C)nc2cc(C(=O)NC3CCCC3)ccc2c1=O`, the “activity change, negative = inhibition” value is reported as inactive: 0%.
For `Cc1cc(C)cc(NC(=O)c2cc(S(=O)(=O)N3CCCCCC3)cn2C)c1`, the “activity change, negative = inhibition” value was inactive: -9.56%.
In the case of `CCN(CC)CCN(C(=O)c1ccco1)c1nc2ccc(Cl)cc2s1`, the “activity change, negative = inhibition” value is reported as inactive: -0.533%.
With `Cn1c(SCc2ccc(F)cc2)nc2ccc(C(=O)NCc3ccc(F)cc3)cc21` the “activity change, negative = inhibition” value was inactive: 0.427%.
In the case of `Cc1nn(CC(=O)NC2CC2)c(=O)c2cc3ccccc3n12`, the “activity change, negative = inhibition” value is reported as inactive: -1.32%.
For `Cc1ccc(-n2nc3c(N4CCC(C(=O)NC(C)C)CC4)nnc(C)c3c2C)cc1`, the “activity change, negative = inhibition” value was inactive: -8.63%.
In the case of `Cc1ccc(NC(=O)Cn2c(-c3ccc4c(c3)OCO4)cn(-c3ccccc3)c2=O)cc1C`, the “activity change, negative = inhibition” value is reported as inactive: 8.23%.
For `Cc1ccc(C2Nc3ccccc3-n3c(-c4ccccc4)c4c(=O)n(C)c(=O)n(C)c4c32)o1` (stereo not drawn), the “activity change, negative = inhibition” value was inactive: -20.5%.
In the case of `CCC1CN(C(=O)N2CCC(C(=O)NCc3ccc(OC)cc3OC)CC2)c2cc(C)ccc2O1` (stereo not drawn), the “activity change, negative = inhibition” value is reported as inactive: -5.82%.
In the case of `Cc1c(Cl)cccc1-n1ncc(C(=O)Nc2ccc3c(c2)OCCO3)c1C1CCN(C(=O)OC(C)(C)C)CC1`, the “activity change, negative = inhibition” value is reported as inactive: -6.99%.
For `CCOc1ccc(-c2nc(SC(C(C)=O)C(=O)N(C)C)c3c(=O)n(C)c(=O)n(C)c3n2)cc1` (stereo not drawn), the “activity change, negative = inhibition” value was inactive: 4.22%.
For `CCc1ccc(NC(=O)c2ccc3c(c2)nnn3CC)cc1`, the “activity change, negative = inhibition” value was inactive: 1.92%.
